PubChem BioAssay AID652104 (National Center for Advancing Translational Sciences (NCATS), 2013)
About 7,200 (1.8%) of roughly 410,000 compounds were called active. The inconclusive results got no clear call from the source; some entries with a clear call stand among them for comparison. Calls follow the shape of the dose curve; as a rule, active = well fitted activation curve with a large enough effect; inconclusive = small, poorly fitted or top-dose-only effect, or another doubt; inactive = no such curve, though single readings can be large or run the other way. Potencies of inconclusive entries are left out as doubtful fits. Some structures have more than one record in an assay (separate samples or runs), and their calls can disagree.

assay: qHTS of TDP-43 Inhibitors; settings: TDP-43 expressing yeast growth rescue, BacTiter-Glo, 24 h; growth rescue (activation): at 46.1 µM (top of the series) unless noted; also: nearly all actives have a fitted effect of over 50% in size; as to growth rescue (activation): % of control where 0% means no effect
Method in brief: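 Growth rescue of TDP-43-toxic yeast measured as ATP luminescence (BacTiter-Glo). Cells grown to mid-log in raffinose, induced in galactose at OD600=0.02, exposed to compound 24 hr at 30 deg C.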
Potency is read from the fitted curve at half-maximal effect; tags tell the direction and shape of the fitted curve.

SMILES	Potency	growth rescue (activation)
CCOC(=O)Cc1ccc(NC(=O)n2ncc3c(C)cccc32)cc1	inconclusive [activator, full curve]	–
Cc1ccc(CN2C(=O)SC(Nc3ccccc3)C2=O)cc1 (stereo not given)	–	inactive: 12.3%
CCOc1ccccc1NC(=O)c1ccc(NC(=O)C2CCCO2)cc1 (stereo not given)	inconclusive [activator, partial curve]	–
O=C1NC(=S)SC1=C1CCCCCC1	inconclusive [activator, single point]	–
O=C(N/N=C\c1ccc(Br)o1)C1COc2ccccc2O1 (stereo not given)	inconclusive [activator, single point]	–
C=C(Cl)COc1ccc2c(CC)cc(=O)oc2c1	inconclusive [activator, single point]	–
Cc1cc(N2CCN(c3ccccc3F)CC2)n2cnnc2n1	inconclusive [activator, partial curve]	–
CC(=O)CSc1nnc2cc(C)c3ccccc3n12	–	inactive: -0.881%
CCOC(=O)C1(CC2CC2)CCN(S(=O)(=O)/C=C/c2ccccc2)CC1	inconclusive [activator, single point]	–
O=C1c2ccccc2C(=O)N1Cc1ccccn1	–	inactive: -3.34%
Cc1ccccc1-c1nc2cc(Cl)ccc2c(=O)o1	–	inactive: 7.57%
CCC(C)Cn1c(COc2ccc(OC)cc2)nc2ccccc21 (stereo not given)	inconclusive [activator, partial curve, poor fit]	–
O=C(NCc1nc2ccccc2[nH]1)C1=C[C@H](c2ccc(C(F)(F)F)cc2)C[C@H](OCc2ccc(CO)cc2)O1	–	inactive: -1.17%
O=C(COC(=O)/C=C/c1ccccc1[N+](=O)[O-])NC1CC1	inconclusive [activator, single point]	–
CCc1c(C)sc(NC(=S)NC(C)C2CCCO2)c1C(=O)OC (stereo not given)	inconclusive [activator, full curve]	–
Cc1ccc2oc(C(=O)N3CCC(O)(c4ccccc4)CC3)c(C)c2c1	inconclusive [activator, single point]	–
COc1ccccc1OCCCn1c(-c2ccc(Cl)cc2)nc2ccccc2c1=O	–	inactive: -6.55%
O=S(=O)(NCCc1ccc(Cl)cc1)c1ccc(N2CCCCS2(=O)=O)cc1	–	inactive: 15.5% [at 9.22 µM]
Cc1ccc(C2C=C(c3ccc(Cl)cc3)Nc3nc(NC(=O)CCC(=O)O)nn32)cc1 (stereo not given)	–	inactive: 14.3%
O=C(Nc1ccccn1)c1ccc([N+](=O)[O-])cc1Cl	inconclusive [activator, partial curve]	–
Cc1cccc(C)c1OCC(=O)Nc1cccc(NC(=O)c2ccco2)c1	active: 25.1 µM	–
COc1ccc(C(=O)N(Cc2ccco2)Cc2cccs2)c(O)c1	inconclusive [activator, partial curve]	–
COc1ccccc1NC(=O)C1=C(C)NC(=O)NC1c1ccc(C)cc1 (stereo not given)	–	inactive: 1.86%
CCOc1ccccc1-c1ccc2nccn2c1	–	inactive: 13.5%
Clc1ccc(Cl)c2sc(N3CCCC3)nc12	active: 7.08 µM	–

SMILES	Potency	growth rescue (activation)
O=C(OC12CC3CC(CC(C3)C1)C2)c1ccc(NCc2cc(O)ccc2O)cc1	–	inconclusive: -91.1% [activator]
O=C1CCCN2N=C(SCC(=O)Nc3ccc([N+](=O)[O-])cc3)SC2=N1	inconclusive [activator, single point]	–
O=C(O)c1ccccc1C=NNc1ccccn1	inconclusive [activator, single point]	–
COc1ccc(-c2cc(C(=O)Nc3ccc(C#N)cc3)no2)cc1	–	inactive: 10.3%
O=C(OCCOc1cccc(Cl)c1)c1ccc(F)c(S(=O)(=O)N2CCOCC2)c1	inconclusive [activator, partial curve]	–
CCCCC(=O)Nc1ccc2c3c(cccc13)CC2	inconclusive [activator, single point]	–
O=C(NCc1cccs1)c1cc(-c2ccccc2)nn1CC1CC(c2cccc([N+](=O)[O-])c2)=NO1 (stereo not given)	inconclusive [activator, partial curve, poor fit]	–
CN(C)CCCN1c2ccccc2Sc2ccc(Cl)cc21	inconclusive [activator, single point]	–
CCC(=O)N1CCc2cc(S(=O)(=O)NCCC(=O)NC(C)c3ccccc3)ccc21 (stereo not given)	–	inactive: 13.6%
Cc1cc2oc(=O)cc(CN(C)Cc3cccc(F)c3)c2cc1Cl	inconclusive [activator, single point]	–
Cc1ccc(CN(C)C(=O)c2cc(COc3ccc(F)cc3Cl)on2)o1	inconclusive [activator, partial curve, poor fit]	–
O=C(O)c1cccc(COc2cccc3ccccc23)c1	active: 35.5 µM	–
O=C(C1CCN(S(=O)(=O)c2cccc3nonc23)CC1)N1CCN(c2ccc(F)cc2)CC1	inconclusive [activator, single point]	–
O=c1[nH]c2ccccc2n2c(-c3ccccc3)nnc12	inconclusive [activator, single point]	–
Cc1cc(Br)ccc1NC(=O)CN1C(=O)C2C3CC(c4ccccc4)C(C3)C2C1=O (stereo not given)	inconclusive [activator, single point]	–
CCC1CCCCN1C(=O)CSc1n[nH]c(-c2ccccc2)n1 (stereo not given)	–	inactive: -5.16%
Cc1c(Cl)cccc1NC(=O)C(C)n1nc(C)c2c(C)n(-c3ccccc3)nc2c1=O (stereo not given)	inconclusive [activator, partial curve]	–
CNC(=O)c1ccc(-c2nc(CN3CCc4ccccc43)c(C)o2)cc1	active: 10 µM	–
CC1CCN(C(=O)CSc2ccc(-c3cccc([N+](=O)[O-])c3)nn2)CC1	inconclusive [activator, single point]	–
Cc1nnc2c(NC3CCCC3)nc3ccccc3n12	inconclusive [activator, partial curve, poor fit]	–
O=C(Oc1ccc(C(=S)N2CCOCC2)cc1Cl)c1ccccc1F	–	inactive: 11.8%
COc1ccc(N2CCN(C(=O)c3ccc(Br)o3)CC2)cc1	inconclusive [activator, partial curve]	–
CN[C@H]1C[C@H]2c3[nH]c4ccc(-c5ccc(OC)cc5)cc4c3CCN2C(=O)[C@H]1[C@H](C)O	inconclusive [activator, single point]	–
COc1ccc(S(=O)(=O)Nc2ccccc2OC)cc1C	inconclusive [activator, single point]	–
CC(C)C1CC2=C(C(=O)OC(C)(C)O2)C(c2ccc(F)cc2)O1 (stereo not given)	–	inactive: 19%

SMILES	Potency	growth rescue (activation)
CN(C)c1ccnc2sc(C(=O)NCc3ccccc3)c(N)c12	inconclusive [activator, single point]	–
Cc1ccccc1CN1CCC(CNC(=O)c2cc3ccc4cccnc4c3[nH]2)CC1	inconclusive [activator, partial curve, poor fit]	–
CC(C)(C)C(=O)NC1CC(=O)N(c2ccc3c(c2)OCCO3)C1 (stereo not given)	–	inactive: -4.82%
O=C(NCc1ccc(F)cc1)c1cc(C2CCCN(C(=O)C3CCCCC3)C2)on1 (stereo not given)	inconclusive [activator, partial curve]	–
COc1ccccc1N1CCN(C(=O)c2cc3c(s2)-c2ccccc2OC3)CC1	active: 11.2 µM	–
Cc1ccccc1OCc1nc2ccccc2c(=O)n1N	inconclusive [activator, single point]	–
CC(Nc1oc(-c2ccco2)nc1C#N)c1ccccc1 (stereo not given)	–	inactive: 2.03%
COc1ccccc1-c1cc2ccccc2[nH]1	active: 15.8 µM	–
CCC(C)C(=O)Nc1ccccc1N1CCN(c2ccc(F)cc2)CC1 (stereo not given)	active: 25.1 µM	–
CCOC(=O)C(=O)Cc1nc2ccccc2s1	inconclusive [activator, single point]	–
COc1cccc(C(=O)OCC(=O)Nc2ccccc2N2CCOCC2)c1	inconclusive [activator, single point]	–
N/C(=N\OC(=O)c1ccccc1Cl)c1cccc([N+](=O)[O-])c1	active: 11.2 µM	–
CCC(=O)Nc1ccc(S(=O)(=O)N2CCc3ccccc3C2)cc1	inconclusive [activator, partial curve]	–
O=C(COC(=O)C1CC2C=CC1C2)Nc1c(Br)cc([N+](=O)[O-])cc1Br (stereo not given)	inconclusive [activator, single point]	–
CCOc1ccc(NS(=O)(=O)c2ccc3[nH]cc(C(=O)N4CCCC4)c(=O)c3c2)cc1	–	inactive: 16%
N/C(=N\OC(=O)c1cccc2ccccc12)c1ccncc1	active: 20 µM	–
O=c1n(Cc2ccccc2)nc2n1-c1ccccc1OC2	inconclusive [activator, single point]	–
O=C1C(=Cc2ccco2)C(=O)c2ccccc21	active: 22.4 µM	–
CCCC(=O)NC(=S)Nc1cccc(C(C)=O)c1	inconclusive [activator, partial curve]	–
Cc1cc(C)c(-c2csc(NC(=O)C3=COCCO3)n2)cc1C	inconclusive [activator, single point]	–
CCN1CCCC1CN(Cc1cc2ccc(C)cc2[nH]c1=O)C(=S)Nc1ccccc1OC (stereo not given)	–	inactive: -0.146%
CCc1ccccc1N1CC(c2nc3ccccc3n2CCCCOc2ccccc2OC)CC1=O (stereo not given)	–	inactive: -12.8%
COc1cc(C2CC(=O)N(c3ccc(C)c(Cl)c3)C3=C2C(=O)OC3)cc(OC)c1OC (stereo not given)	–	inactive: 2.78%
O=C(NCCc1ccccc1)c1c(O)c2ccccc2[nH]c1=O	–	inactive: -23.9%
N/C(=N\OC(=O)c1ccc(Cl)cc1)c1cccnc1	inconclusive [activator, single point]	–
